Assay results reported in the RNAGym collection of RNA variant scans (doi:10.1073/pnas.2313332121).
Variants at the floor of the assay are shown more often than the library holds them.

B1: TPR 5TU (parent)
chain: GGAUCUUCUCGAUCUAACAAAAAAGACAAAUCUGCCACAAAGCUUGAGAGCAUCUUCGGAUGCAGAGGCGGCAGCCUUCGGUGGCGCGAUAGCGCCAACGUUCUCAACUAUGACACGCAAAACGCGUGCUCCGUUGAAUGGAGUUUAUCAUG

Variants of: B1
Assay: polymerase ribozyme fitness, log enrichment relative to wild type (log ratio); higher = more active; in vitro selection for triplet polymerase activity
Summary of the method: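 Mutant libraries of both subunits of a heterodimeric triplet polymerase ribozyme were PCR-built, transcribed, and selected once in triplicate, with frozen incubation at −7 °C and capture of gel-excised extended constructs on streptavidin beads before RT-PCR. Illumina sequencing of input and output libraries was filtered to genotypes with ≥10 input reads and ≥1 read per output. Fitness is the logarithm of genotype enrichment over wild-type enrichment, using inverse-variance-weighted replicate averages. The logarithm is base 2.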

Variant	polymerase ribozyme fitness (log ratio)
A19C G58C U127G U145G	≤ -4.2
A19U A28C A40C A41C U44G C85A A113C	≤ -4.2
A19U C72U G86U C114G A115U	≤ -4.2
A19G A22G U31G A41U U44A A60C G81A G83C G84A U146A	≤ -4.2
A19G A47G G48A	-3.23
A19G C32A G46C C54U G59C G94A C96U C123A A137C U139G	≤ -4.2
A19C G83A G86A C95A U134G G143U	≤ -4.2
A19G G46U C51A G67C G80C A120U	≤ -4.2
A19G A29U A40U G59A C76G C95U C99U	≤ -4.2
A19C U31C A37U A41C G92C A138U	≤ -4.2
A19U G94A	-1
A19U G84U C114A	≤ -4.2
A19C U31C A52U C72U A91G C95G	≤ -4.2
A19U C32G C54U C63A G84U G88U A89U G126U	≤ -4.2
A19U G94U A97U U104A U151C	≤ -4.2
A20C A21U A24U A26U	≤ -4.2
A19C G34A G59U A91G G141A	≤ -4.2
A19U A49C C54A G62A A119G C125U U144A	≤ -4.2
A19U C85G G92U C123U	-2.54
A19C U33G G74A C79G G94C U101C	≤ -4.2
A19G U148G	-3.88

Variant	polymerase ribozyme fitness (log ratio)
A19U C54U C85A G117C G140C A150C	≤ -4.2
A19U A23C A26U	≤ -4.2
A19G G46C A107U A120C C129U	≤ -4.2
A19G A26U U53G G124C U148C	≤ -4.2
A19C G67C C85G C103A	≤ -4.2
A19U A21U C85G	-2.46
A19G G83C	-1.11
A19C C57U G86A	-0.316
A19G U53G A120U	-2.57
A20C A23C C76A U82A C85U A89U C93U U146C	≤ -4.2
A19C G65C C69G C85U C87G U102G A121G G124A U139G	≤ -4.2
A19U A52G U53G G88A C93A C95A U145C	≤ -4.2
A19U G48U	-0.613
A19C C54G U56G C116A U135G A150G	≤ -4.2
A19U A21U G86A C103U	-2.31
A19C A52G U53A U56A G88U C93G	≤ -4.2
A19G A30C C32U A41C C54A U90C G94A	≤ -4.2
A19U A40U U53A C87A G94A	≤ -4.2
A19U U31C G46A C96U C131U U139G	-2.16
A19G A37U U101G	-2.14
A19U U45A G83C	-3.67

Variant	polymerase ribozyme fitness (log ratio)
A19U C57G C95U C103G U104G	≤ -4.2
A19U U56A A91U C103G	≤ -4.2
A19U A23G U45A U82A A91U	≤ -4.2
A19U A24C C35U C57U A66C G86U	-4.08
A19C C27U A30C U53A C85A C99A U134C	≤ -4.2
A19G A22C U55A G65U C85A G128U	≤ -4.2
A19C G42C C95U U145G	≤ -4.2
A19G A47C C57A C96U U101G C123U U145A	-0.877
A19U A23G G48C U55A G94A G136U G152A	≤ -4.2
A19G A30G G42C G50A C85U U109A A120G	≤ -4.2
A19C G83U C87U	-0.445
A19G G74C U102G	≤ -4.2
A19C C57A A119G G128A	-4.12
A19C U53A C75U C87U A91C G92C C103A G143U	≤ -4.2
A19U A22C C27G A37G C57U C87G C96G G112C	≤ -4.2
A19U U56A G74A C85G A107U G126U	≤ -4.2
A19U C35G A66G G70A G94U C114U C149G	≤ -4.2
A19U A40U C54A A60G C96U	-2.61
A19C C38A G59C A64C A113U G133U	≤ -4.2
A19C C87G	≤ -4.2
A19U G48U C54G A73G G81U G92U C116G C125A	≤ -4.2

Variant	polymerase ribozyme fitness (log ratio)
A20C A21U A23C C51A C123A A138U	≤ -4.2
A19C U53A G100U C103G U130G	≤ -4.2
A19C U56A C93U C129U U151G	≤ -4.2
A19C C54U	-0.474
A19G A91U	≤ -4.2
A19U A60G G94A C99G U104G	≤ -4.2
A19G G42C C87G G128C	≤ -4.2
A19U A28U A52G C105G G126C G141C U148A C149U A150C	≤ -4.2
A19C U44A A91G	≤ -4.2
A19C C69U A107U A137G	≤ -4.2
A19G G59U G84U C105G	-3.78
A19U A21U G94A	-1.09
A19G A40U C57A U61A G100U G136U G141C	≤ -4.2
A19G A91G C95U C125U	-4.01
A19C C54U G67U C85A	≤ -4.2
A19U U33A C38U G68A C76U G88A C114G G143A	≤ -4.2
A19U G81A	-0.839
A19U A66G G71C G88A U104G	≤ -4.2
A19C U55A C75A G84U U102C	≤ -4.2
A19U A24C C27U U53A U139C	≤ -4.2
